# Results published in paper PMC6212790.
# The list shows a part of the results. At the low end of the ranking the order means little.
# Biological target: T1, GST-Rok-C97-191 (UniProt O34857)
# T1 sequence: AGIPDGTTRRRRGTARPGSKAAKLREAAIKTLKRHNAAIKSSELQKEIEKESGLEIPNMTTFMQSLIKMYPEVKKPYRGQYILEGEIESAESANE
# Experiment: protein binding microarray;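 also: rank score from −0.5 (least bound) to 0.5 (best bound)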
# Conditions: Rok is a gene silencer of Bacillus subtilis; high values mean tight binding; most listed sequences are background and not binding sites; double strand, one strand shown
row,Sequence,binding signal [E-score]
1,AATCCTTC,0.0128
2,ATAATAGG,0.204
3,ATCTATGA,0.21
4,GCTCCCCA,-0.358
5,ATGCAAAA,0.0921
6,CACTAATA,0.33
7,GCTTTCTA,0.319
8,AAACGCAG,-0.202
9,GTCACTAA,-0.0156
10,AAAGATGC,-0.164
11,ACGCGGCC,-0.303
12,AAGGCTAT,-0.189
13,AAGATTAT,0.193
14,CGATTTCC,-0.0329
15,CTAAAGCA,0.0775
16,AGCATGGC,-0.257
17,ACCTGCGT,-0.201
18,TAACAGTA,0.342
19,CAGCGTCA,-0.136
20,ATCCTGAC,-0.111
21,GGGATCAA,0.087
22,CCCCCAGC,-0.235
23,CACGCCGA,-0.114
24,TAAGGAGA,-0.0645
25,TAGGAGCA,-0.0514

row,Sequence,binding signal [E-score]
1,ACGTCCGA,-0.0789
2,TACTCCTA,0.2
3,ATGTAGCA,0.249
4,CGCAACCG,0.0123
5,AAACCGGC,0.00711
6,CTACGTAC,0.179
7,AAGGGAAC,-0.0526
8,GGTTTTAC,0.0171
9,AAACGTGC,-0.0643
10,AGCCCCAC,-0.285
11,AACGAATC,0.0675
12,GGTCCTAA,-0.141
13,AAGCCTCG,-0.157
14,AAAGGCGA,-0.163
15,CCTGCCCG,-0.291
16,ATCGAAAG,-0.0779
17,ATTCAGTC,0.00215
18,GACAAGCC,-0.303
19,GTGGGACA,-0.0102
20,AGTTGCTC,-0.0215
21,AGTTCCGC,0.016
22,GACTGGTA,0.0942
23,ACCCAATA,0.126
24,GAGTCCGC,-0.156
25,CCGAAGCG,-0.137

row,Sequence,binding signal [E-score]
1,ATGACAAG,0.0967
2,AACTGCGC,-0.0988
3,TAAATATA,0.378
4,CGCTCACA,-0.108
5,AATCAACC,-0.0341
6,AAATCCCT,-0.144
7,AAGAAACA,0.209
8,TTCGGCAA,0.0828
9,GGAAAGCC,-0.359
10,CGTGGGAA,-0.123
11,GACTTGGA,0.0497
12,GACCTGCC,-0.252
13,AGAAACTA,0.377
14,ATTACTCA,0.159
15,TGAAGGAA,-0.162
16,ACACCGAC,-0.15
17,CGCGGATA,0.0026
18,GCAGGTGA,-0.204
19,GTAAATTA,0.378
20,CTTATCTC,0.0402
21,AATTGCTC,0.117
22,GACAGATC,-0.173
23,CTTGATCA,-0.0378
24,GAGGCGGA,-0.213
25,TCCCAAAA,-0.229

row,Sequence,binding signal [E-score]
1,ATCCAGAC,-0.0379
2,ATATGATA,0.226
3,GTACAAGA,0.115
4,ACACTAGC,-0.055
5,GGGGAAGA,-0.299
6,CGTCTGGC,-0.0441
7,CTCGCCTC,-0.271
8,AGCAAGAA,0.138
9,ATATGAAA,0.137
10,AGCGCTCC,-0.204
11,TGGGGGAA,-0.219
12,AGGGTTAA,0.157
13,CCGCAGTA,0.0802
14,TCAAAGGA,-0.112
15,ACCCGTCG,-0.0666
16,ACAGATCA,-0.0524
17,ACGACATC,0.0706
18,AGTCTTTC,-0.0129
19,ACATCGGT,-0.00865
20,CAGGGCTC,-0.321
21,GGGGCGTA,-0.32
22,GGCGGATA,-0.0808
23,GTAGGCGA,-0.0223
24,CCACTGCC,-0.228
25,TAGCTTGA,0.171

row,Sequence,binding signal [E-score]
1,CCGAATGA,0.1
2,ACTCATTG,0.0742
3,CGGGTGTA,-0.0869
4,AACTCAGA,0.111
5,CGGAACAC,-0.166
6,AACCGACT,-0.0777
7,GGTGAGTA,0.216
8,GCTCATGA,-0.0999
9,GATTTCAC,-0.175
10,AACAACGC,0.154
11,GACAGTCA,-0.111
12,CGCTGGAG,-0.0371
13,CCGTTTAG,-0.187
14,AAAAACTC,0.113
15,ATGGTGTA,0.152
16,CACGCTAC,0.218
17,CCCCGAAA,-0.205
18,GAAGCGCA,0.0214
19,AGCGAAGA,0.00338
20,ACAGATAC,0.252
21,ATTATGCC,0.103
22,GCTGCCCC,-0.239
23,ATGACACA,-0.028
24,GCGGTTGA,-0.0628
25,ATGAGGCC,-0.0546

row,Sequence,binding signal [E-score]
1,CGTTAACC,-0.00653
2,GCAACCGA,-0.104
3,GCGAAATA,0.176
4,CTAATTAG,0.362
5,ACACATCC,-0.172
6,CTAAGGCA,-0.0227
7,GCTGTGGA,-0.17
8,CAAGTTCA,0.034
9,TCCCGTCA,-0.215
10,CGTTGGGA,-0.225
11,CATTCTCC,-0.0543
12,AAGAGCCA,-0.103
13,CGGCCGCC,-0.431
14,CGAACACC,-0.163
15,ATTCCATG,0.0866
16,ACGCCAGG,-0.0577
17,CATGTGAG,-0.181
18,AGATCGCG,0.0472
19,ATTTAGAC,0.0917
20,TCTCCCCA,-0.181
21,GAGGCACA,0.00837
22,ACGGTCAG,-0.0264
23,GCGCTGTA,0.0592
24,GTTTTTCA,-0.192
25,GAAGCGCC,-0.235

row,Sequence,binding signal [E-score]
1,AAAGTTCT,0.145
2,GGTAGCGA,0.0646
3,ATTTTAGA,0.0762
4,GTTTCAGA,0.126
5,ACGATGTG,-0.0382
6,CATTGGCC,-0.226
7,CGGTAAAC,0.0274
8,ACGCAAAG,-0.12
9,AAATGTTA,0.091
10,CCGACAGC,-0.206
11,CTTCCACC,-0.294
12,ATCTTGTC,0.14
13,GACCCCGC,-0.24
14,CGTACACA,0.112
15,AAAGAAGC,-0.118
16,CTGGGCTA,-0.112
17,AGTAGCCA,-0.0763
18,CCTATCCA,-0.0657
19,CAACATGA,-0.049
20,AGCTGCGA,-0.0575
21,GGGGAGAC,-0.222
22,CTGACAGA,0.0178
23,ATATAATC,0.201
24,AACTTGCT,0.0697
25,AGGGTAGC,-0.0772

row,Sequence,binding signal [E-score]
1,ACGGCTAT,0.0653
2,ATAAGGGA,0.0164
3,CTGTAGAC,0.031
4,ATGGAGCC,-0.318
5,CAGTCTCA,-0.0929
6,GACAACCC,-0.277
7,AAGTGCAG,-0.0846
8,GGTAGAAC,0.4
9,GCGACTAA,-0.148
10,CCAAGCTC,-0.212
11,AAGTCAGG,-0.0615
12,CCTCCTAG,-0.0673
13,TATGAGCA,0.0159
14,CTTGTCAC,-0.0553
15,AGTGATAT,0.267
16,CGAAGTGA,-0.0056
17,AATAGCCT,-0.0495
18,ACACGTGG,-0.00456
19,TGTGTCAA,-0.222
20,AGTCGATG,-0.141
21,CAGCTATC,0.156
22,CGTAAGAA,0.0624
23,CCTGTATC,-0.00872
24,AACACAGT,0.0134
25,TAATGATA,0.184

row,Sequence,binding signal [E-score]
1,ACATCCTA,0.134
2,AATACGTG,0.145
3,TGGGTGAA,0.135
4,GCGATAAA,0.0616
5,CAGCCTGG,-0.2
6,AGCTAAAA,0.208
7,CCGTTGAA,-0.0578
8,CGAATGCA,-0.0901
9,TGTAGACA,0.0255
10,GTGCAGTA,0.196
11,CCATTGGC,-0.0209
12,CGCGGATC,-0.0348
13,AACCCATG,0.192
14,CTCAGTTA,0.131
15,ACGCTGTC,-0.0765
16,CGTCTCCA,-0.152
17,CCGCCAAG,-0.312
18,ACCATACG,0.129
19,CCGGACAC,-0.000842
20,GAAGGCAA,-0.191
21,CTAGGTTC,0.0689
22,ACCGTGCA,0.175
23,CCGTTGCC,-0.227
24,AGAAAGCA,-0.01
25,GCCGTTTA,0.00806

row,Sequence,binding signal [E-score]
1,GAATTGAC,0.0102
2,CGACCAAC,-0.152
3,AAAGCTCC,-0.074
4,GTAATAGA,0.284
5,GGTACAAC,0.0521
6,CTACGAAA,0.114
7,GTCTAGTA,0.154
8,GACAGAAC,-0.0485
9,AGTTATTG,0.132
10,CCTCATAA,-0.0664
11,CCCTATGA,-0.0838
12,CCGAGTGA,-0.218
13,CTGCGAAA,-0.215
14,ACTTTACT,0.0715
15,CTAGCGCC,-0.119
16,CGGTCTAA,-0.0401
17,AGCGTGCG,-0.222
18,GAGCTCGA,0.0407
19,CCTTACCC,-0.0838
20,AGACAAAG,-0.0928
21,CGGTAACC,-0.0179
22,AGTTTAAA,0.245
23,ATCGATCG,0.031
24,ATCTCACG,-0.0602
25,AATCATGC,-0.146

row,Sequence,binding signal [E-score]
1,CCCTAGAA,0.122
2,ACACGCGT,0.0894
3,CGAGGAAC,-0.152
4,ATAGACAC,0.151
5,ACCGCCCG,-0.346
6,GGTGTTCA,-0.0907
7,GCCGCCTA,-0.225
8,GCTCAACA,-0.228
9,ATGTACGC,-0.00331
10,AGCACACT,-0.037
11,ACCTTTAA,0.0637
12,ATCGTTAA,0.122
13,GTCACTCA,0.0222
14,CTCACAAG,-0.122
15,TTAGCCAA,0.0797
16,CTTGTTTA,-0.0624
17,CCCTACTA,0.124
18,TTGATCAA,-0.0674
19,AAAAGTAC,0.279
20,GATGATCC,-0.215
21,ACACGAAC,0.0842
22,CGCCAGAG,-0.218
23,AAAGAGTG,0.00883
24,ATAACCCA,-0.0659
25,ACATTCCG,0.156

row,Sequence,binding signal [E-score]
1,CTCGAAAG,-0.0292
2,AGTATTAT,0.32
3,AATACGCG,0.19
4,TCCTGTCA,-0.118
5,ACCGTCCT,-0.0376
6,CTTCCGAC,-0.0925
7,AACCCTGA,-0.173
8,ATAACAGC,0.11
9,CCTCGACA,-0.249
10,CACAACTC,-0.0508
11,CCATACAA,0.105
12,ATGTAGGC,0.0299
13,GTGAGGTA,0.232
14,AGACTGAG,-0.118
15,GACCTACA,-0.0611
16,ATCGGCCC,-0.1
17,GAGAAGGC,-0.228
18,TGCACTAA,0.0891
19,CATGAGTC,0.00281
20,GAACGGCC,-0.0958
21,ATGACCCC,-0.0612
22,CAACTGAA,0.0728
23,CCGTAAGC,-0.0964
24,ACAGAGTA,0.101
25,TGGTATAA,0.289

row,Sequence,binding signal [E-score]
1,CCCGGAAA,-0.111
2,CAAATGCC,0.0992
3,AACTATTG,0.291
4,ACCGCAGG,-0.024
5,CCCCTATC,-0.22
6,CTATGGAA,0.039
7,CGCTTCTA,-0.0615
8,AATCGTAC,0.0782
9,GCATCCAC,-0.165
10,GAAGACAA,-0.119
11,AGCCCAGC,-0.298
12,GTACGGAC,-0.13
13,CAAGGTTA,-0.115
14,AGGTTTCC,-0.151
15,CCGAGTAA,-0.0812
16,GGCTTAAA,-0.15
17,TGGTACCA,0.148
18,ACTCCGCT,-0.336
19,GCAATCAA,0.0979
20,CCACTCAA,-0.0786
21,GAAGAGTC,-0.132
22,GGCTGTGA,0.0766
23,ACGGGGAT,0.000367
24,ATCTCTCC,-0.281
25,AGCCGGTG,-0.27

row,Sequence,binding signal [E-score]
1,CGTGATAC,0.0771
2,ATCCACCG,-0.0931
3,AGCCTCAG,-0.106
4,GGGTACAC,-0.0448
5,CCGCCAGA,-0.192
6,GGGTGAGA,-0.123
7,CCTATCGA,0.117
8,GCGCGACA,-0.0167
9,GCGATGAC,-0.188
10,ATGTGGTC,-0.139
11,AGGATTAA,0.0707
12,ATGGATCG,0.0585
13,CACATCGG,-0.187
14,GCAACCCA,-0.00176
15,CACGATGC,-0.0892
16,GATACGGC,-0.0947
17,TACCGGGA,-0.0154
18,ACACTACT,0.18
19,CTATGGCC,-0.0446
